Measurements published in the supplement of paper PMC9446081.
The whole screen tested about 39,000 compounds, of which about 220 (0.56%) showed activity. The list shows a part of the results.
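Further: static incubation at 37 °C against the wild-type strain, values averaged over two biological replicates.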

Each compound was assayed on Escherichia coli K-12 BW25113 (assay: relative growth (OD600 normalised to plate interquartile mean) (fraction); higher = less growth inhibition, active = 0.2 or less). Conditions: 50 µM; LB; incubation time: overnight (16-24 h).
With `C[C@H]1CCCCO[C@H](CN(C)S(=O)(=O)c2ccccc2)[C@@H](C)CN([C@@H](C)CO)C(=O)c2cc(NC(=O)Nc3ccc(C(F)(F)F)cc3)ccc2O1` the relative growth was inactive: 1.02. `CC(C)NC(=O)Nc1ccc2c(c1)C(=O)N([C@H](C)CO)C[C@H](C)[C@@H](CN(C)Cc1ccc(Cl)c(Cl)c1)OCCCC[C@H](C)O2` was tested, and the relative growth was inactive: 1.03. In the case of `O=C(C[C@@H]1CC[C@H]2[C@@H](COC[C@@H](O)CN2S(=O)(=O)c2cccc(F)c2)O1)NCCCN1CCOCC1`, the relative growth is reported as inactive: 0.981. For `C[C@@H]1CN([C@@H](C)CO)C(=O)c2cc(NC(=O)Nc3ccc4c(c3)OCO4)ccc2O[C@H]1CN(C)Cc1ccc(Oc2ccccc2)cc1`, the relative growth was inactive: 1.01. For `O=C(C1=C[C@@H](c2ccc(C(F)(F)F)cc2)C[C@@H](OCc2ccc(CO)cc2)O1)N1CCN(Cc2ccccc2)CC1`, the relative growth was inactive: 1.03. In the case of `CCCCC[C@@H](C)N`, the relative growth is reported as inactive: 0.999. `CC(C)NC(=O)Nc1ccc2c(c1)C(=O)N([C@@H](C)CO)C[C@H](C)[C@@H](CN(C)Cc1ccccc1)OCCCC[C@H](C)O2` was tested, and the relative growth was inactive: 1.01. `CC1=C(CC(=O)O)c2cc(F)ccc2C1=Cc1ccc(S(C)=O)cc1` (stereo not drawn) was tested, and the relative growth was inactive: 1.05. With `C[C@H]1CCCCO[C@H](CN(C)S(=O)(=O)c2ccccc2)[C@@H](C)CN([C@@H](C)CO)C(=O)c2cc(NC(=O)Nc3cccc4ccccc34)ccc2O1` the relative growth was inactive: 1.03. In the case of `O=[N+]([O-])c1cccc2c1nnn2[C@H](CO)OCCO`, the relative growth is reported as inactive: 0.98. With `COc1ccc(CN(C)C[C@H]2Oc3c(NC(=O)c4cnccn4)cccc3C(=O)N([C@H](C)CO)C[C@@H]2C)cc1` the relative growth was inactive: 0.998. For `C[C@@H]1CN([C@@H](C)CO)C(=O)c2cccc(NC(=O)C3CC3)c2O[C@@H]1CN(C)S(=O)(=O)c1cn(C)cn1`, the relative growth was inactive: 1.02. In the case of `Cc1ccc(S(=O)(=O)N(C)C[C@@H]2OCCCC[C@H](C)Oc3ccc(NC(=O)C4CCCCC4)cc3C(=O)N([C@@H](C)CO)C[C@H]2C)cc1`, the relative growth is reported as inactive: 1.05. For `Cc1noc(C)c1NC(=O)N(C)C[C@@H]1Oc2ccc(NS(=O)(=O)c3cn(C)cn3)cc2C(=O)N([C@H](C)CO)C[C@H]1C`, the relative growth was inactive: 0.985. For `C[C@@H]1CN([C@@H](C)CO)C(=O)c2cc(NC(=O)C3CC3)ccc2O[C@H]1CN(C)Cc1ccc2c(c1)OCO2`, the relative growth was inactive: 1.02. For `CC(C)(C)S(=O)N1Cc2cc(C(=O)NCc3ccc4c(c3)OCO4)nc(-c3cccc(C#CCC4CCCC4)c3)c2[C@H]1CCO` (stereo partly drawn), the relative growth was inactive: 1.04. For `Cc1ccc(S(=O)(=O)N2C[C@@H](O)COC[C@H]3O[C@H](CC(=O)NCc4ccc5c(c4)OCO5)CC[C@@H]32)cc1`, the relative growth was inactive: 1. `C[C@@H]1CN([C@@H](C)CO)C(=O)c2cc(-c3ccc(F)cc3)cnc2O[C@@H]1CN(C)C(=O)Cc1ccccn1` was tested, and the relative growth was inactive: 0.977. With `COc1ccc(S(=O)(=O)N(C)C[C@H]2Oc3ccc(NS(=O)(=O)c4cn(C)cn4)cc3CC(=O)N([C@@H](C)CO)C[C@@H]2C)cc1` the relative growth was inactive: 0.998. In the case of `C[C@H]1CN([C@@H](C)CO)C(=O)c2c(c3ccccc3n2C)-c2ccccc2CO[C@H]1CN(C)C(=O)Nc1cccc(C(F)(F)F)c1`, the relative growth is reported as inactive: 1.03. In the case of `O=C(CCCCCCC(=O)Nc1ccc([C@H]2O[C@@H](CSc3ccccc3)C[C@H](c3ccccc3)O2)cc1)NO`, the relative growth is reported as inactive: 1.02. In the case of `COc1ccc(S(=O)(=O)Nc2ccc3c(c2)C(=O)N([C@@H](C)CO)C[C@H](C)[C@H](CN(C)Cc2ccc4c(c2)OCO4)OCCCC[C@@H](C)O3)cc1`, the relative growth is reported as inactive: 0.998. `FC(F)(F)Oc1ccccc1` was tested, and the relative growth was inactive: 0.963. `Cc1noc(C)c1NC(=O)N(C)C[C@H]1Oc2ccc(NS(=O)(=O)c3c(C)noc3C)cc2CC(=O)N([C@@H](C)CO)C[C@H]1C` was tested, and the relative growth was inactive: 0.987. `CNC[C@H]1Oc2ccc(NC(=O)Cn3cnnn3)cc2C(=O)N([C@@H](C)CO)C[C@@H]1C` was tested, and the relative growth was inactive: 0.913. With `C[C@H](CO)N1C[C@H](C)[C@H](CN(C)Cc2ccc(C(F)(F)F)cc2)Oc2ccc(NC(=O)Cn3cnnn3)cc2CC1=O` the relative growth was inactive: 0.95. In the case of `CCCC#Cc1ccc2c(c1)O[C@@H](CN(C)S(=O)(=O)c1cccc(OC)c1)[C@H](C)CN([C@@H](C)CO)S2(=O)=O`, the relative growth is reported as inactive: 1.04. For `CCS(=O)(=O)N1C[C@]2(CN(C2)C(=O)Nc2ccc3c(c2)OCO3)c2c(n(c3cc(ccc23)OC)C)[C@@H]1CO`, the relative growth was inactive: 0.979. In the case of `O=C(C[C@H]1CC[C@@H]2[C@H](COC[C@H](O)CN2C(=O)Nc2ccc(C(F)(F)F)cc2)O1)NCCc1ccncc1`, the relative growth is reported as inactive: 0.863. In the case of `O=C(C[C@@H]1C=C[C@H](NC(=O)CN2CCOCC2)[C@@H](CO)O1)NC1CCC1`, the relative growth is reported as inactive: 0.993. In the case of `COc1ccc(NC(=O)Nc2ccc3c(c2)C(=O)N([C@@H](C)CO)C[C@@H](C)[C@@H](CN(C)Cc2ccc4c(c2)OCO4)OCCCC[C@H](C)O3)cc1`, the relative growth is reported as inactive: 1.01. For `CCc1oc(CC[C@@H](CO)NC(=O)NCCn2cc(C3(O)CCCCC3)nn2)c(C(=O)OC)c1C(=O)OC`, the relative growth was inactive: 0.985. With `C[C@H](CO)N1C[C@H](C)[C@@H](CN(C)C(=O)c2ccncc2)Oc2cc(C#C[C@@H](C)O)ccc2S1(=O)=O` the relative growth was inactive: 1.02. With `C[C@@H]1CN([C@@H](C)CO)C(=O)Cc2cc(NC(=O)Nc3ccccc3)ccc2O[C@H]1CN(C)Cc1ccc(Cl)c(Cl)c1` the relative growth was inactive: 0.998. `C[C@@H]1CN([C@@H](C)CO)C(=O)c2cccc(NC(=O)Nc3ccc(C(F)(F)F)cc3)c2O[C@@H]1CN(C)Cc1ccc(Cl)c(Cl)c1` was tested, and the relative growth was inactive: 1.03. For `Cc1noc(C)c1NC(=O)Nc1cccc2c1O[C@H](CN(C)Cc1ccc(Oc3ccccc3)cc1)[C@@H](C)CN([C@H](C)CO)C2=O`, the relative growth was inactive: 1.02. In the case of `O[C@@H]1[C@@H](O)[C@H](Br)C=C[C@H]1O`, the relative growth is reported as inactive: 0.998. `C[C@@H]1CN([C@@H](C)CO)S(=O)(=O)c2ccc(C#CC3CC3)cc2O[C@@H]1CN(C)C(=O)Cc1ccncc1` was tested, and the relative growth was inactive: 1.01.
